Source: patent US20130089513A1 (MEDEXGEN, published 2013)

T1: TPO receptor-Fc fusion protein (human, UniProt P40238 26-491)
T1 construct: extracellular domain; C-terminal region of the receptor's extracellular domain fused to the N-terminal region of human IgG1 Fc; purified on Protein A from CHO supernatant; also called TPO receptor-Ig fusion protein; not shown: Fc domain of human IgG1
T1 sequence (looked up): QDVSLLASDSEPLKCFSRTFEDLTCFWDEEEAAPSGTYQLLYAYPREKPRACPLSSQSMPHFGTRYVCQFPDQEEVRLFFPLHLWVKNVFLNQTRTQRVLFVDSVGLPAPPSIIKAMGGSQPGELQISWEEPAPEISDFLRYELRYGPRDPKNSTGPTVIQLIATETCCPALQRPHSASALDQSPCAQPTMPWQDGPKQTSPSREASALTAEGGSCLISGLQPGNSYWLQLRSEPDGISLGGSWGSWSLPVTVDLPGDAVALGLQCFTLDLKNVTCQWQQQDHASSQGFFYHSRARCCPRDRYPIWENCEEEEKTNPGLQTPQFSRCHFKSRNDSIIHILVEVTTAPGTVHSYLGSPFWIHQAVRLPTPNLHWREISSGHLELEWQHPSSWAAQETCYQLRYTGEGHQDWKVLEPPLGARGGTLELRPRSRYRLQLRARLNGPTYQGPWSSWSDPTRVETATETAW

T2: c-Mpl (TPO receptor) expressed on TF-1/c-Mpl cells (human, UniProt P40238 26-635)
T2 sequence (looked up): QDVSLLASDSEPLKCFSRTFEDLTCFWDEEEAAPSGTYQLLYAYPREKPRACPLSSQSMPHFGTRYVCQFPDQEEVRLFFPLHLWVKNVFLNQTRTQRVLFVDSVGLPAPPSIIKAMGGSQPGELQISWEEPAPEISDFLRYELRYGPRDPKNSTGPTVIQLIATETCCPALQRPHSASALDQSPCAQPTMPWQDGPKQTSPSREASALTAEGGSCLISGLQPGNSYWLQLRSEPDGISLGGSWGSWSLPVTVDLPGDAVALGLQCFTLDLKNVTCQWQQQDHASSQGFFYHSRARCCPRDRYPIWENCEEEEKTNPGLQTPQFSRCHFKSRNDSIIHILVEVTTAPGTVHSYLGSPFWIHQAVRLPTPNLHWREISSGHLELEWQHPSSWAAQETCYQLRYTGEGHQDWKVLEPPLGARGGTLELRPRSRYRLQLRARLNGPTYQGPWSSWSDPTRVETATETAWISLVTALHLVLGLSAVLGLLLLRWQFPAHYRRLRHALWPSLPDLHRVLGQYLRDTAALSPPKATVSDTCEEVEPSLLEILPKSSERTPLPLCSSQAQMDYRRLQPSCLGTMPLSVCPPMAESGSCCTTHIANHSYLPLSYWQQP

B1: TPO-[F46V] (ligand)
chain: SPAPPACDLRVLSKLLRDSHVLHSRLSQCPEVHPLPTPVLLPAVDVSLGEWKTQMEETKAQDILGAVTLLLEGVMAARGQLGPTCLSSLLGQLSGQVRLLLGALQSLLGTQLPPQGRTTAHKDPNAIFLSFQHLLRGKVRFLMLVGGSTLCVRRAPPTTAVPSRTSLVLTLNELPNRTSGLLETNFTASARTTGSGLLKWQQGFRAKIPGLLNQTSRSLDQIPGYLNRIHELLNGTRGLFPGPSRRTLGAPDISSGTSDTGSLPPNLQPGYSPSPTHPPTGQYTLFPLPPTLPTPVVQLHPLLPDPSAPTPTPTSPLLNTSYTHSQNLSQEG
notes: TPO mutein expressed in CHO-K1 cells
B2: TPO-[F128V] (ligand)
chain: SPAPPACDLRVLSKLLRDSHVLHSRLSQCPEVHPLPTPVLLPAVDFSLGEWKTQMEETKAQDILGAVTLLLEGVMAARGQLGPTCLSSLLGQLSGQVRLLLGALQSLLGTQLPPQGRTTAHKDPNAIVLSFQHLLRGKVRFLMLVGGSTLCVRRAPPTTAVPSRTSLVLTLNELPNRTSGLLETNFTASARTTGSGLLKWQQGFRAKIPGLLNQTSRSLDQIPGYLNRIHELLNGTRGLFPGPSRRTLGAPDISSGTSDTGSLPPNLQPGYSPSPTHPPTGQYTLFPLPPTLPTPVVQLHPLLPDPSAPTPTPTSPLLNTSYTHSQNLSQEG
notes: as for B1
B3: TPO-[F131V] (ligand)
chain: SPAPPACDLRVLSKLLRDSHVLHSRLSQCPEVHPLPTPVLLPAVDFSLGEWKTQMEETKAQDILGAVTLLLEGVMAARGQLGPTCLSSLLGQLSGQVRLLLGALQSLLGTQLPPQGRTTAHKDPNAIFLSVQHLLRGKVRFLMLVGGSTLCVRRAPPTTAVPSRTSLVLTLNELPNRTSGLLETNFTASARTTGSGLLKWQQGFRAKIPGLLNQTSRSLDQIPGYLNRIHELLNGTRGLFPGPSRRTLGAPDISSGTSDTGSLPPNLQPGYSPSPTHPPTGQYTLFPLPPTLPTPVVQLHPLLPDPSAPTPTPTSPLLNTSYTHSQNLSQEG
notes: as for B1
B4: TPO-[F141V] (ligand)
chain: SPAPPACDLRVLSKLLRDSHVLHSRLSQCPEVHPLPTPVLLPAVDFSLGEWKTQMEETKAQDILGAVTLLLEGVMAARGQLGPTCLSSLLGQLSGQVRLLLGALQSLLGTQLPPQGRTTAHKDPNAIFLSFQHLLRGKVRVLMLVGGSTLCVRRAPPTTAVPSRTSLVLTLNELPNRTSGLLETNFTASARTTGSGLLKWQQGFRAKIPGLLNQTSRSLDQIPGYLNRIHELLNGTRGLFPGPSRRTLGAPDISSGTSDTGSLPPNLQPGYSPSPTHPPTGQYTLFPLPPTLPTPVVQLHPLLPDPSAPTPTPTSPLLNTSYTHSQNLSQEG
notes: as for B1

Tests used:
[1] = biological target: T1, TPO receptor-Fc fusion protein; assay: ELISA on coated TPO receptor-Fc, detection with biotinylated anti-human TPO antibody and streptavidin-HRP
[2] = biological target: T2, c-Mpl (TPO receptor) expressed on …; assay: cell-based or functional assay
[3] = biological target: T1, TPO receptor-Fc fusion protein; assay: SPR, BIAcore 3000, CM5 chip, TPO receptor-Fc captured by anti-human IgG
[4] = biological target: T1, TPO receptor-Fc fusion protein; assay: SPR, BIAcore 3000, TPO receptor-Fc captured by anti-human IgG

Binder | EC50 (read off the curve) [1] | The maximum activity comparison(%) (TF-1/c-Mpl cell proliferation, MTS) [2] | resonance unit (RU) [3] | Kd [4] | koff [4] | kon [4]
B1 | ~0.04 mg/L | 107% |  |  |  | 
B2 | ~0.03 mg/L | 63% |  |  |  | 
B3 | ~0.06 mg/L | 119% | 20 RU |  |  | 
B4 | ~0.08 mg/L | 146% | 30 RU | 3.98 nM | 0.0051 s⁻¹ | 1.28e+06 M⁻¹ s⁻¹
